Some of the results follow.
Each compound was assayed on S. aureus RN4220 (assay: growth inhibition call (relative growth <= 0.2)). Settings: 50 µM.

Growth inhibition call, inactive:
C[C@H]1CN([C@@H](C)CO)C(=O)c2cc(NC(=O)Nc3ccccc3)ccc2O[C@H]1CN(C)Cc1ccc(C(F)(F)F)cc1
CCOC(N)=O
C[C@H]1CN([C@@H](C)CO)C(=O)c2cccc(NC(=O)Nc3ccc4c(c3)OCO4)c2O[C@H]1CN(C)S(=O)(=O)c1cn(C)cn1
CN(C)CCCNC(=O)C[C@H]1CC[C@@H]2[C@H](COc3ccc(NC(=O)c4ccc5c(c4)OCO5)cc3C(=O)N2C)O1
CCNC(=O)[C@@H]1[C@@H](CO)[C@@H]2Cn3c(ccc(-c4cccc(C(=O)N(C)C)c4)c3=O)[C@H]1N2
CCC(=O)N1C[C@]2(CN(C2)C(=O)CN2CCOCC2)c2c([nH]c3cc(ccc23)OC)[C@@H]1CO
CO[C@H]1CN(C)C(=O)c2ccc(NC(=O)c3ccccc3)cc2OC[C@H](C)N(C(=O)CN(C)C)C[C@@H]1C
Nc1ncn(C[C@@H](O)CO)c2nc(Br)nc1-2
C[C@@H]1CN([C@@H](C)CO)C(=O)c2cc(NC(=O)C3CC3)ccc2O[C@@H]1CN(C)Cc1ccc2c(c1)OCO2
COC(CN(C)C(=O)c1cn(C)c2ccc(S(=O)(=O)N3CCOCC3)cc2c1=O)OC
Cc1ccc(S(=O)(=O)Nc2ccc3c(c2)C(=O)N([C@@H](C)CO)C[C@H](C)[C@@H](CN(C)C(=O)Nc2ccc(C(F)(F)F)cc2)OCCCC[C@@H](C)O3)cc1
CC(C)(C)S(=O)N1Cc2cc(C(=O)NCc3ccc4c(c3)OCO4)nc(-c3cccc(C#CCC4CCCC4)c3)c2[C@H]1CCO (some centres not stated)

Source: the antibiotic and cytotoxicity screens of Wong et al. (2023)
